# The list shows a part of the results. The energies were worked out here from pooled read counts, against the library average; single values are noisy.
# Target: T1, Pho4 (S. cerevisiae) (UniProt P07270)
# T1 sequence: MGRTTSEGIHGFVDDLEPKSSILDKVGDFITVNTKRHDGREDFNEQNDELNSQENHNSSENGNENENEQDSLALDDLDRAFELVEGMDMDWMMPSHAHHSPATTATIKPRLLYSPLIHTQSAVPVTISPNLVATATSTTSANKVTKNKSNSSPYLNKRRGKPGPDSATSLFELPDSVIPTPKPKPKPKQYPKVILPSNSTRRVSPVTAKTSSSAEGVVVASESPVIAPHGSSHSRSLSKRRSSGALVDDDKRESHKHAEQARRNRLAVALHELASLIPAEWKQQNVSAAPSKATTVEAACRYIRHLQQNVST
# Assay: relative binding free energy (BET-seq); higher = weaker binding
# Details: reference: library average
row,Sequence,relative binding free energy [kcal/mol]
1,TACGTCACGTGTGTGT,0.1
2,TCGTTCACGTGATGTA,0.47
3,CAATTCACGTGTATTT,0.27
4,AAGGACACGTGGCGTT,0
5,TAGGTCACGTGATATA,0.13
6,TGGCTCACGTGAGTGA,0.28
7,CTCGCCACGTGTGGTT,0.08
8,TTTTGCACGTGGTTCG,-0.15
9,ATTTGCACGTGGTGCG,-0.01
10,GTAGACACGTGATTGA,0.29
11,ATGATCACGTGTTCTT,0.15
12,ATTAGCACGTGTTATA,-0.29
13,GGGGTCACGTGCATGT,0.22
14,AAGAGCACGTGTTGTA,-0.16
15,TGCGGCACGTGCGTGC,-0.07
16,GTGGTCACGTGTAGTT,0.14
17,CTGTTCACGTGGTTTT,0.23
18,GGTGACACGTGTGGAA,0.13
19,TTTAGCACGTGCATTG,0.01
20,AGTTGCACGTGGGAAT,-0.05
21,GGGTCCACGTGGTTGT,-0.02
22,TATGACACGTGTAAGG,0.13
23,GTTTACACGTGGCGGT,0.13

row,Sequence,relative binding free energy [kcal/mol]
1,CCGTGCACGTGTGAGG,-0.04
2,ATCGGCACGTGGGATT,-0.1
3,TGGGCCACGTGGCGGT,-0.13
4,AAAGCCACGTGGTTGG,-0.08
5,GCATTCACGTGAGTGG,0.36
6,GGTGACACGTGTCTAG,0.08
7,AGAGGCACGTGTGAGG,0.01
8,GGTTACACGTGTGAAT,0.24
9,TTATTCACGTGGACGG,0.28
10,GTTTTCACGTGAAATG,0.42
11,GTTAGCACGTGAATGG,0.25
12,CTTAGCACGTGGTTAT,-0.11
13,TTGCTCACGTGTAGCG,0.13
14,GGCGTCACGTGTCTTG,0.17
15,AGGTGCACGTGTTATT,0.05
16,CATTTCACGTGTGATT,0.4
17,GGCTTCACGTGTGTAA,0.39
18,AAGTGCACGTGGAAGG,-0.06
19,TTGTCCACGTGTTTGG,0
20,GTTGTCACGTGAAGAT,0.28
21,TTTAGCACGTGATGAA,0.01
22,TGTAGCACGTGACGGT,0.04
23,TTGCTCACGTGAGGCG,0.46

row,Sequence,relative binding free energy [kcal/mol]
1,GGTTTCACGTGGTTGT,0.31
2,AGCGGCACGTGGGCCG,-0.15
3,GTCTCCACGTGGAGGG,0.06
4,ATCAACACGTGTGGTG,0.02
5,GTACGCACGTGGTTGA,-0.19
6,GCTGTCACGTGGCTTG,-0.03
7,AGTCTCACGTGGTATG,0.05
8,TGTTCCACGTGTGAGG,0.15
9,TGGCGCACGTGGCGTA,-0.23
10,TGATACACGTGGCAGG,-0.07
11,AATGGCACGTGTAGGC,-0.08
12,GTACTCACGTGGGGTT,0.1
13,GGGGGCACGTGCATGA,-0.16
14,TGTTTCACGTGGAGTT,0.33
15,ATTGACACGTGGGTGT,-0.07
16,TAAATCACGTGTCTGG,0.24
17,GTCCTCACGTGGGAGG,0.24
18,TGCGGCACGTGTAGGT,-0.21
19,ATGGGCACGTGTGTTC,-0.09
20,AGACGCACGTGAGTGT,0.08
21,ATCGGCACGTGTATTT,0.1
22,CAAGGCACGTGGGGAG,-0.19
23,CCGTGCACGTGGCTGG,-0.05

row,Sequence,relative binding free energy [kcal/mol]
1,GTGCTCACGTGAGTGT,0.45
2,AGATGCACGTGTGAAA,0.24
3,TAAATCACGTGTTGAT,0.04
4,GTTGTCACGTGGGCGA,0.06
5,TGCTGCACGTGTGTAT,-0.06
6,GGTTGCACGTGCATGC,0.03
7,AGGTACACGTGTGTTT,0.12
8,GTGTTCACGTGATGCT,0.28
9,TGGTACACGTGGGCAA,-0.15
10,GATGGCACGTGCTGTA,-0.12
11,GCGCTCACGTGGGGAG,0.12
12,CATGGCACGTGAAAGG,0.07
13,GAGATCACGTGTTGTT,0.29
14,AGGTCCACGTGATGTT,-0.02
15,CCGGGCACGTGGATTG,-0.06
16,TTGGGCACGTGAATCG,0.25
17,GTTGGCACGTGGGTTC,-0.15
18,GTGTACACGTGTAAGA,0.24
19,TTGTTCACGTGCTTGC,0.33
20,TGGGTCACGTGGTAAA,0.08
21,TATTACACGTGGGGAT,0.04
22,TTTTACACGTGATACG,0.14
23,GGTATCACGTGTGCTA,0.26

row,Sequence,relative binding free energy [kcal/mol]
1,CGTATCACGTGTGATG,0.19
2,TTTCACACGTGTTTTG,0.15
3,TTGCGCACGTGTTTCT,-0.1
4,AGTTGCACGTGTCGTG,0
5,GGTTACACGTGACGTG,0.16
6,AGTGTCACGTGCGAGT,-0.09
7,CAGAGCACGTGCGGGT,-0.15
8,GAGGGCACGTGGGGTT,-0.07
9,GAAGTCACGTGTAGCG,0.28
10,GGCGTCACGTGGTGAT,0.21
11,AGAAACACGTGTAGTG,0.06
12,CGATTCACGTGGAGTT,0.2
13,GTAAACACGTGGTATG,-0.01
14,TTGAACACGTGGGCAG,-0.1
15,TGCAGCACGTGGTGGT,-0.08
16,TGTGGCACGTGTTGAG,-0.15
17,TGTTTCACGTGACTAT,0.28
18,GTGTACACGTGGGTGC,-0.07
19,TAGATCACGTGTTTTC,0.18
20,AGTTTCACGTGCCGGT,0.22
21,TTTGTCACGTGTTGAG,0.04
22,TTATTCACGTGTTGGG,0.24
23,CTAGTCACGTGTTAGA,0.16

# Source: the BET-seq Pho4 binding data (Le et al. 2018)
